# Source: the supplement of paper PMC4967469
# How the values were obtained:
# Experiment in all cases: Viability of human cancer cell lines after 72 h of drug (GDSC screen)
# (5Z)-7-Oxozeaenol = compound: COc1cc(O)c2c(c1)/C=C/C[C@H](O)[C@H](O)C(=O)/C=C\C[C@H](C)OC2=O [(5Z)-7-Oxozeaenol]; details: top dose 10 µM; top dose inferred
# Experimental: (§1)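 Human cancer cell lines in 384-well plates, medium with 10% serum, drug for 72 h over a 256-fold dose range (nine 2-fold or five 4-fold steps up to the top dose). Adherent lines were fixed and stained with the nucleic acid dye Syto60, suspension lines read with resazurin; signal relative to control wells, capped at 0 and 100%. One two-parameter sigmoid per drug and line, fitted in a mixed model over all curves with the slope shared within a line.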
# CHIR-99021 = compound: Cc1cnc(-c2cnc(NCCNc3ccc(C#N)cn3)nc2-c2ccc(Cl)cc2Cl)[nH]1 [CHIR-99021]
# Experimental: as §1
# Cytarabine = compound: Nc1ccn([C@@H]2O[C@H](CO)[C@@H](O)[C@@H]2O)c(=O)n1 [Cytarabine]; details: top dose 2 µM
# Experimental: as §1
# Thapsigargin = compound: C/C=C(/C)C(=O)O[C@H]1C(C)=C2[C@H]([C@@H]1OC(=O)CCCCCCC)[C@@](C)(OC(C)=O)C[C@H](OC(=O)CCC)[C@@]1(O)[C@H]2OC(=O)[C@@]1(C)O [Thapsigargin]; details: top dose 0.512 µM; top dose inferred
# Experimental: as §1
# GSK269962A = compound: CCn1c(-c2nonc2N)nc2cnc(Oc3cccc(NC(=O)c4ccc(OCCN5CCOCC5)cc4)c3)cc21 [GSK269962A]; details: top dose inferred
# Experimental: as §1
# KU-55933 = compound: O=c1cc(-c2cccc3c2Sc2ccccc2S3)oc(N2CCOCC2)c1 [KU-55933]; details: top dose 10 µM
# Experimental: as §1
# Zibotentan = compound: COc1nc(C)cnc1NS(=O)(=O)c1cccnc1-c1ccc(-c2nnco2)cc1 [Zibotentan]; details: top dose 20 µM; top dose inferred
# Experimental: as §1
# CP466722 = compound: COc1cc2ncnc(-n3nc(-c4ccccn4)nc3N)c2cc1OC [CP466722]; details: top dose 16 µM; top dose inferred
# Experimental: as §1
# ABT-869 = compound: Cc1ccc(F)c(NC(=O)Nc2ccc(-c3cccc4[nH]nc(N)c34)cc2)c1 [ABT-869]; details: top dose 1.024 µM; top dose inferred
# Experimental: as §1
# QL-X-138 = compound: C=CC(=O)Nc1cc(-n2c(=O)ccc3cnc4ccc(-c5cn[nH]c5)cc4c32)ccc1C [QL-X-138]; details: top dose 10.24 µM; top dose inferred
# Experimental: as §1
# MPS-1-IN-1 = compound: COc1cc(N2CCC(O)CC2)ccc1Nc1cc(Nc2ccccc2S(=O)(=O)C(C)C)c2cc[nH]c2n1 [MPS-1-IN-1]; details: top dose 20 µM; top dose inferred
# Experimental: as §1
# ABT-888 = compound: C[C@]1(c2nc3c(C(N)=O)cccc3[nH]2)CCCN1 [ABT-888]; details: top dose 5 µM; top dose inferred
# Experimental: as §1
# [1] = top dose 2.56 µM, screen: GDSC drug entry 154
# [2] = top dose 10 µM, screen: GDSC drug entry 1241, top dose inferred
# [3] = top dose 5 µM, screen: GDSC drug entry 1192
# [4] = top dose 2.5 µM, screen: GDSC drug entry 127
Cell Line,AUC ((5Z)-7-Oxozeaenol),IC50 ((5Z)-7-Oxozeaenol),AUC (CHIR-99021; [1]),IC50 (CHIR-99021; [1]),AUC (CHIR-99021; [2]),IC50 (CHIR-99021; [2]),AUC (Cytarabine),IC50 (Cytarabine),AUC (Thapsigargin),IC50 (Thapsigargin),AUC (GSK269962A; [3]),IC50 (GSK269962A; [3]),AUC (KU-55933),IC50 (KU-55933),AUC (Zibotentan),IC50 (Zibotentan),AUC (CP466722),IC50 (CP466722),AUC (ABT-869),IC50 (ABT-869),AUC (QL-X-138),IC50 (QL-X-138),AUC (MPS-1-IN-1),IC50 (MPS-1-IN-1),AUC (ABT-888),IC50 (ABT-888),AUC (GSK269962A; [4]),IC50 (GSK269962A; [4])
"HCC1419 (breast, adherent)",0.9,> 10 µM,0.98,> 2.56 µM,0.962,> 10 µM,0.832,> 2 µM,0.869,> 0.512 µM,0.968,> 5 µM,0.979,> 10 µM,0.98,> 20 µM,0.808,12.9 µM,0.974,> 1.02 µM,0.655,2.08 µM,0.979,> 20 µM,0.961,> 5 µM,,
"HCC1428 (breast, adherent)",0.884,> 10 µM,0.983,> 2.56 µM,0.977,> 10 µM,0.945,> 2 µM,0.287,0.00748 µM,0.986,> 5 µM,0.966,> 10 µM,0.986,> 20 µM,0.847,13.4 µM,0.981,> 1.02 µM,0.864,> 10.2 µM,0.987,> 20 µM,0.987,> 5 µM,,
"HCC1500 (breast, adherent)",0.859,8.86 µM,0.985,> 2.56 µM,0.987,> 10 µM,0.988,> 2 µM,0.256,0.00618 µM,0.82,3.02 µM,0.967,> 10 µM,0.982,> 20 µM,0.626,2.26 µM,0.974,> 1.02 µM,0.591,1.15 µM,0.984,> 20 µM,0.982,> 5 µM,0.956,> 2.5 µM
"HCC1569 (breast, adherent)",0.783,5.76 µM,0.846,> 2.56 µM,0.925,> 10 µM,0.937,> 2 µM,0.259,0.00509 µM,0.935,> 5 µM,0.909,> 10 µM,0.975,> 20 µM,0.69,4.12 µM,0.968,> 1.02 µM,0.701,2.88 µM,0.969,> 20 µM,0.98,> 5 µM,,
"HCC1954 (breast, adherent)",0.772,4.51 µM,0.984,> 2.56 µM,0.959,> 10 µM,0.959,> 2 µM,0.389,0.015 µM,0.962,> 5 µM,0.984,> 10 µM,0.984,> 20 µM,0.758,6.4 µM,0.964,> 1.02 µM,0.504,0.658 µM,0.984,> 20 µM,0.984,> 5 µM,,
"HCC-15 (lung squamous cell carcinoma, adherent)",0.75,4.09 µM,0.982,> 2.56 µM,0.975,> 10 µM,0.927,> 2 µM,0.318,0.0085 µM,0.922,> 5 µM,0.931,> 10 µM,0.982,> 20 µM,0.917,> 16 µM,0.975,> 1.02 µM,0.86,> 10.2 µM,0.964,> 20 µM,0.958,> 5 µM,,
"HCC-56 (large intestine, adherent)",0.704,2.39 µM,0.987,> 2.56 µM,0.986,> 10 µM,0.913,> 2 µM,0.468,0.0261 µM,0.905,> 5 µM,0.969,> 10 µM,0.983,> 20 µM,0.908,> 16 µM,0.984,> 1.02 µM,0.976,> 10.2 µM,0.876,> 20 µM,0.987,> 5 µM,,
"HCC-78 (lung adenocarcinoma, adherent)",0.844,9.08 µM,0.983,> 2.56 µM,0.884,> 10 µM,0.77,0.892 µM,0.659,0.0959 µM,0.968,> 5 µM,0.941,> 10 µM,0.981,> 20 µM,0.809,10.1 µM,0.977,> 1.02 µM,0.67,2.08 µM,0.927,> 20 µM,0.978,> 5 µM,,
"HDQ-P1 (breast, adherent)",0.632,1.55 µM,0.956,> 2.56 µM,0.924,> 10 µM,0.883,> 2 µM,0.158,0.00219 µM,0.963,> 5 µM,0.975,> 10 µM,0.984,> 20 µM,0.826,12.4 µM,0.977,> 1.02 µM,0.889,> 10.2 µM,0.931,> 20 µM,0.985,> 5 µM,,
"HEC-1 (endometrium, adherent)",0.742,2.99 µM,0.98,> 2.56 µM,0.974,> 10 µM,0.865,1.66 µM,0.357,0.013 µM,0.87,4.38 µM,0.966,> 10 µM,0.987,> 20 µM,0.983,> 16 µM,0.986,> 1.02 µM,0.935,> 10.2 µM,0.988,> 20 µM,0.923,> 5 µM,,

# IC50 is the fitted dose that halves viability relative to control wells, and lower means more sensitive; where the fit passes the top or lowest dose, that dose stands as a limit. AUC sums up the same curve from the lowest dose to the 256-fold higher top dose; values near 1 show little effect. For some of these results: The top dose, if marked as inferred, comes from the curve model; the source does not state it. For some of these results: An entry number marks a drug with two screens in the source, which often give different values.
